In PubChem BioAssay AID686978 (National Center for Advancing Translational Sciences (NCATS), 2013):
Values joined by “and” are separate entries in the source; they are usually repeats but may differ in a detail not shown here. Equal entries are not always repeated. Among all 420,000 compounds or so, about 64,000 (15%) were called active. The inconclusive results got no clear call from the source; some entries with a clear call stand among them for comparison. Calls come from the whole dose curve; as a rule, active = well fitted inhibition curve with a large enough effect; inconclusive = small, poorly fitted or top-dose-only effect; inactive = flat fitted curve, though single readings scatter. Potencies of inconclusive entries are left out as doubtful fits.

Test: qHTS for Inhibitors of human tyrosyl-DNA phosphodiesterase 1 (TDP1): qHTS in cells in absence of CPT; note: nearly all actives have a fitted effect of over 55% in size
Conditions: DT40 Tdp1-/- hTDP1 cells, no CPT, ATP luminescence, 48 h; series mostly up to 46.2 µM
In short: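 Growth of hTDP1-complemented DT40 Tdp1-knockout cells is measured by ATP luminescence after at least 48 hr compound exposure at 37 °C, with DMSO substituting for the 20 nM CPT used in the parallel screen.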
Potency is the fitted concentration of half-maximal effect; tags give direction and shape of the fitted curve.

Structure (SMILES) | Potency
COc1ccc(CCNc2ccc(S(=O)(=O)N3CCCC3)cc2[N+](=O)[O-])cc1 | inconclusive [inhibitor, partial curve]
Cc1cc(-n2c(C)cc(C(=O)COC(=O)CN=C3NS(=O)(=O)c4ccccc43)c2C)no1 | inactive
O=C(COc1ccc(F)cc1)NCCc1nc2ccccc2[nH]1 | inactive
O=C1CC[C@@H](O)CCN1CC[C@H](Sc1ccc(Br)cc1)c1ccccc1 | active: 10 µM
Cc1nnc(SCCn2c(N3CCN(Cc4ccccc4)CC3)nc3c2c(=O)[nH]c(=O)n3C)s1 | inactive
COCCCNC(=O)c1ccc(Cn2c(=O)c3ccccc3n(Cc3ccccc3C#N)c2=O)cc1 | inconclusive [inhibitor, single point]
CCCC(=O)Nc1ccc(Cl)c(NC(=O)CC)c1 | inconclusive [inhibitor, single point]
CCC(CO)NCc1ccc(OC2CCCC2)cc1 (stereo not given) | inconclusive [inhibitor, single point]
CC(C)CCOc1ccccc1Cn1c(=O)sc2ccccc21 | inconclusive [inhibitor, single point]
Cc1ccc(CNS(=O)(=O)c2ccc3c(c2)CCN3C(=O)C2CCC2)cc1 | inconclusive [inhibitor, single point]
COc1ccc([C@@H]2C[C@H]3[C@@H](CN2S(=O)(=O)c2ccccc2)C(=O)C[C@@H](c2cccc(Cl)c2)N3S(=O)(=O)c2ccc(C)cc2)cc1 | inactive
OCC[C@@H]1C[C@H](O)[C@@H](O)[C@@]2(CCCO2)O1 | inactive
CCOC(=O)[C@]12CCC=C1N(Cc1ccc(Cl)cc1Cl)C(=O)[C@H](CC(=O)N1CCSCC1)C2 | active: 16.4 µM
CCOC(=O)c1cc(-c2ccccc2)n(CCC(=O)Nc2nc3c(C)cccc3s2)c1C | active: 13 µM
CCCCc1cc(-c2n[nH]c(=S)o2)c2ccccc2n1 | inconclusive [inhibitor, partial curve]
N#C/C(=C/c1ccc(-c2ccc([N+](=O)[O-])cc2)o1)C(=O)Nc1nc(-c2cccs2)cs1 | inconclusive [inhibitor, partial curve]
O=C(Nc1sc2c(c1C(=O)O)CCCCC2)c1ccco1 | inconclusive [inhibitor, single point]
Cc1cccc(-n2c(=O)c(C#N)cc3c(=O)n4ccccc4nc32)c1 | inactive
Cc1ccc(NC(=O)C2(C)CCN2C2Cc3ccccc3C2)cc1 (stereo not given) | inconclusive [inhibitor, single point]
CC(=O)C1=CCC(c2ccccc2)N(S(=O)(=O)c2ccccc2C)C1 (stereo not given) | active: 20.6 µM
Cc1cc(C)c2nc(NC(=O)C3CSC4(C)CCC(=O)N34)sc2c1 (stereo not given) | active: 3.66 µM
Cc1ccc(N(CC(=O)N2CCc3ccccc32)S(=O)(=O)c2cccs2)cc1 | active: 18.4 µM
CC1CC(C)CN(CCCNC(=O)c2csc3c2CCCCC3)C1 (stereo not given) | inactive

Structure (SMILES) | Potency
Cn1c(=O)c2sccc2n2c(CCCC(=O)Nc3ccc(Oc4ccc(Cl)cc4)cc3)nnc12 | active: 18.4 µM
O=C(NCc1ccc(Cl)cc1)C1CCN(S(=O)(=O)c2cccs2)CC1 | active: 23.1 µM
CC(C)Cn1c(=O)[nH]c(=O)c2c(C(F)(F)F)cc(-c3ccccc3)nc21 | inconclusive [inhibitor, partial curve]
Cc1ccc(OCc2cc(C(=O)NCc3cc(F)ccc3C)no2)cn1 | inconclusive [inhibitor, single point]
Fc1cccc(CSc2ccc3nnc(-c4cccnc4)n3n2)c1 | active: 16.4 µM
CN(c1ccc(OCC(=O)NCc2cccnc2)cc1)S(=O)(=O)c1ccc(Cl)cc1 | inconclusive [inhibitor, single point]
Cc1ccc(C(=O)N(CN2CCCC2=O)c2ccc(F)cc2)cc1C | active: 25.9 µM
Cc1ncc(CO)c(/C=N/Nc2cccc(Cl)n2)c1O | inconclusive [inhibitor, full curve]
Cc1cccc(/C=C2\Sc3ccc(C(=O)NCC4CCCO4)cc3N(C)C2=O)c1 (stereo not given) | inconclusive [inhibitor, single point]
CCC(=NCc1ccc(Cl)c(Cl)c1)c1nc(-c2ccco2)oc1O | inconclusive [inhibitor, single point]
CNc1snc(C)c1C(=O)OC(C)C(=O)Nc1cccc(OC)c1 (stereo not given) | inconclusive [inhibitor, partial curve, poor fit]
CC(=O)c1cccc(S(=O)(=O)NC(C)C2CC3CCC2C3)c1 (stereo not given) | inconclusive [inhibitor, single point]
O=C(N/N=C/c1cc(Cl)cc([N+](=O)[O-])c1O)c1ccc2c(c1)OCO2 | active: 9.2 µM
CCOc1ccccc1CNC(=O)CCn1ccc2cc(S(=O)(=O)N3CCCCC3)ccc21 | active: 13 µM and active: 29.1 µM
CN(C)S(=O)(=O)c1ccc(N2CCCC2)c(C(=O)NC(c2ccccc2)c2ccccc2)c1 | inconclusive [inhibitor, single point]
O=C(CN(C(=O)CSc1nc2ccccc2o1)c1cccc(F)c1)NC1CCCCC1 | inconclusive [inhibitor, single point]
CCc1ccc(-n2c(=O)c3c(C)c(C(=O)N(C)C)sc3n(Cc3ccccc3F)c2=O)cc1 | inactive
COc1ccc(OC)c(NC2c3ccccc3C(=O)N2Cc2ccc3c(c2)OCO3)c1 (stereo not given) | inconclusive [inhibitor, single point]
OC(CNCCNc1ncccc1C(F)(F)F)COc1ccc(F)cc1 (stereo not given) | inconclusive [inhibitor, single point]
CC1=C(C(=O)N2CCCCCC2)CC(CC(=O)NCCN2CCOCC2)C(=O)N1Cc1ccc(F)cc1 (stereo not given) | inactive
O=C1Cc2cc(S(=O)(=O)Nc3ccccc3Cl)cc3c2N1CCC3 | inactive
Cc1cc(-c2ccccc2)nc(N/N=C/c2ccc(O)cc2)n1 | inconclusive [inhibitor, single point]
